In a collection of fitness landscapes (doi:10.1016/j.celrep.2020.107928):
The full ranking holds about 81,000 sequences; the median of “one-hybrid fitness for binding NBS DNA” is about -0.1, and the highest 2% start at about 0.36. Some of the results follow.

B1: Caulobacter ParB omega fusion; a variant is named by its letters at X, in order, B8GW30 (parent)
chain: MESVVVGEPGMSEGRRGLGRGLSALLGEVDAAPAQAPGEQLGGSREAPIEILQRNPDQPRRTFREEDLEDLSNSIREKGVLQPILVRPSPDTAGEYQIVAGERAWRAAQRAGLKTVPIMVRELDDLAVLEIGIIENVQRADLNVLEEALSYKVLMEKFERTQENIAQTIGKSXSHVANXMRLLXLPDEVQSYLVSGELTAXHARAIAAAADPVALAKQIIEGGLSVRETEALARKAPNLSAGKSKGGRPPRVKDTDTQALESDLSSVLGLDVSIDHRGSTGTLTITYATLEQLDDLCNRLTRGI

Variants of: B1
Assay: one-hybrid fitness for binding NBS DNA (the Noc-binding site; scaled: cognate 1, non-cognate 0); higher = stronger binding
Details: with NBS DNA site
Procedure, shortened: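 Fitness is the rescaled log change in variant-to-wild-type read ratio, measured by Illumina sequencing of plasmids before and after bacterial one-hybrid selection. The scale puts cognate at 1 and non-cognate at 0. Selection of Caulobacter ParB libraries, four specificity codons randomised, took place in E. coli USO with a HIS3 reporter, site 19 bp from the promoter, over 48 hours at 37°C on M9-minus-histidine with 0.1 mM IPTG and 5 mM 3-AT.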

Variant | one-hybrid fitness for binding NBS DNA
MVNM | ≤ 0.2
HHSC | ≤ 0.2
TAQR | ≤ 0.2
SITW | ≤ 0.2
IKAY | ≤ 0.2
TTQK | ≤ 0.2
AFAT | ≤ 0.2
NAHT | ≤ 0.2
RSKN | ≤ 0.2
ILEV | ≤ 0.2
SKFV | ≤ 0.2
TILM | ≤ 0.2
SNSQ | ≤ 0.2
APFT | ≤ 0.2
HGTL | ≤ 0.2
SKCI | ≤ 0.2
PKPN | ≤ 0.2
SFQS | ≤ 0.2
LEWR | ≤ 0.2
PATG | ≤ 0.2
HQRH | ≤ 0.2
SDGL | ≤ 0.2
YGRK | ≤ 0.2
AEVR | ≤ 0.2

Variant | one-hybrid fitness for binding NBS DNA
MLKQ | ≤ 0.2
NQTN | ≤ 0.2
TDAQ | ≤ 0.2
EGYT | ≤ 0.2
KQSC | ≤ 0.2
DSTL | ≤ 0.2
SIYR | ≤ 0.2
HDLE | ≤ 0.2
SGVY | ≤ 0.2
GKVG | ≤ 0.2
TSQT | ≤ 0.2
TVYM | ≤ 0.2
RILA | ≤ 0.2
RETL | ≤ 0.2
QCMM | ≤ 0.2
APYW | ≤ 0.2
HRHC | ≤ 0.2
RPRC | ≤ 0.2
ASFY | ≤ 0.2
DETF | ≤ 0.2
CYTS | ≤ 0.2
KMNT | ≤ 0.2
CHRK | ≤ 0.2
IDQS | ≤ 0.2

Variant | one-hybrid fitness for binding NBS DNA
IAAG | ≤ 0.2
HRKD | ≤ 0.2
NRTV | ≤ 0.2
LHNI | ≤ 0.2
HMKA | ≤ 0.2
TCSP | ≤ 0.2
DDTY | ≤ 0.2
SKNP | ≤ 0.2
CVKV | ≤ 0.2
ELHT | ≤ 0.2
IDLL | ≤ 0.2
MTQS | ≤ 0.2
QPYG | ≤ 0.2
SVAW | ≤ 0.2
RCGK | ≤ 0.2
GKCG | ≤ 0.2
NTNI | ≤ 0.2
AGVL | ≤ 0.2
WWNR | ≤ 0.2
KDDG | ≤ 0.2
PIVV | ≤ 0.2
AGEF | ≤ 0.2
GAEM | ≤ 0.2
CVSL | ≤ 0.2

Variant | one-hybrid fitness for binding NBS DNA
SATY | ≤ 0.2
KDGR | ≤ 0.2
TTFW | ≤ 0.2
YSHM | ≤ 0.2
ATCM | ≤ 0.2
VSDG | ≤ 0.2
SLPV | ≤ 0.2
MFVY | ≤ 0.2
MCRC | ≤ 0.2
ELRF | ≤ 0.2
RIIA | ≤ 0.2
MSPC | ≤ 0.2
EIHS | ≤ 0.2
QYTR | 0.572
RCAQ | ≤ 0.2
RIVG | ≤ 0.2
FHRN | ≤ 0.2
TVNM | ≤ 0.2
RIKL | ≤ 0.2
SFWY | ≤ 0.2
IYAM | ≤ 0.2
WWSG | ≤ 0.2
RRFV | 0.213
ILIS | ≤ 0.2

Variant | one-hybrid fitness for binding NBS DNA
LFVM | ≤ 0.2
NPNL | ≤ 0.2
RATT | 0.415
LSFT | ≤ 0.2
LPPC | ≤ 0.2
IQKS | ≤ 0.2
CNAT | ≤ 0.2
IDPD | ≤ 0.2
LQET | ≤ 0.2
DKKC | ≤ 0.2
NAPI | ≤ 0.2
PTHC | ≤ 0.2
NLTC | ≤ 0.2
RGTW | ≤ 0.2
PLDC | ≤ 0.2
NATS | ≤ 0.2
HQCT | ≤ 0.2
WKTR | ≤ 0.2
LNCR | ≤ 0.2
SPRQ | ≤ 0.2
LRPW | ≤ 0.2
GVRF | ≤ 0.2
KCCC | ≤ 0.2
KSPM | ≤ 0.2

Variant | one-hybrid fitness for binding NBS DNA
LYVC | ≤ 0.2
LWAL | ≤ 0.2
RVCA | ≤ 0.2
HADM | ≤ 0.2
NVGW | ≤ 0.2
RYLF | ≤ 0.2
LSTK | ≤ 0.2
NCWS | ≤ 0.2
FAPC | ≤ 0.2
PSAE | ≤ 0.2
LDVR | 0.201
FEQS | ≤ 0.2
QTWR | 0.529
QYYT | 0.352
KQPL | ≤ 0.2
CSTA | ≤ 0.2
YLDA | ≤ 0.2
TVPS | ≤ 0.2
AGGS | ≤ 0.2
SQEM | ≤ 0.2
CGKW | ≤ 0.2
GSAS | ≤ 0.2
PDPR | ≤ 0.2
ELYG | ≤ 0.2

Variant | one-hybrid fitness for binding NBS DNA
PDVF | ≤ 0.2
KRFM | ≤ 0.2
AYER | ≤ 0.2
APTY | ≤ 0.2
KRDC | ≤ 0.2
LDRR | ≤ 0.2
QNRH | ≤ 0.2
PFYS | ≤ 0.2
SLSV | ≤ 0.2
NSVN | ≤ 0.2
FCKR | 0.392
YHVW | ≤ 0.2
YYQV | ≤ 0.2
FPRC | ≤ 0.2
QGQL | ≤ 0.2
YCNG | ≤ 0.2
HARC | ≤ 0.2
RKES | 0.434
RFEC | ≤ 0.2
AGKI | ≤ 0.2
PGDW | ≤ 0.2
DYHR | ≤ 0.2
PTYH | ≤ 0.2
QARN | 0.349

Variant | one-hybrid fitness for binding NBS DNA
HTGY | ≤ 0.2
MVFS | ≤ 0.2
YAPP | ≤ 0.2
VFTP | ≤ 0.2
RPMY | ≤ 0.2
SWHI | ≤ 0.2
VGHT | ≤ 0.2
MGVS | ≤ 0.2
GRIR | ≤ 0.2
PWSI | ≤ 0.2
ILIG | ≤ 0.2
GLNS | ≤ 0.2
ATVG | ≤ 0.2
PHDV | ≤ 0.2
QAVN | ≤ 0.2
PVDT | ≤ 0.2
QKHN | ≤ 0.2
YYHN | ≤ 0.2
QCNF | ≤ 0.2
CRKY | ≤ 0.2
DALA | ≤ 0.2
MSPG | ≤ 0.2
ACYR | ≤ 0.2
AGAS | ≤ 0.2

Variant | one-hybrid fitness for binding NBS DNA
RTPY | ≤ 0.2
GSKD | ≤ 0.2
VPIK | ≤ 0.2
NCVG | ≤ 0.2
HRLM | ≤ 0.2
RAPP | ≤ 0.2
QMND | ≤ 0.2
CAPV | ≤ 0.2
FGAF | ≤ 0.2
MFMG | ≤ 0.2
LGLM | ≤ 0.2
RLFH | ≤ 0.2
MKTK | ≤ 0.2
RHFK | ≤ 0.2
LWHT | ≤ 0.2
QWYT | ≤ 0.2
RASH | ≤ 0.2
QKHC | ≤ 0.2
APVY | ≤ 0.2
LKCV | ≤ 0.2
HRWH | ≤ 0.2
FEAS | ≤ 0.2
VYVL | ≤ 0.2
TFTF | ≤ 0.2

Variant | one-hybrid fitness for binding NBS DNA
QVPD | ≤ 0.2
FNYI | ≤ 0.2
RHGA | ≤ 0.2
KYAK | ≤ 0.2
GSSF | ≤ 0.2
RDHQ | ≤ 0.2
LAFS | ≤ 0.2
RCAD | ≤ 0.2
YCTY | ≤ 0.2
PIGT | ≤ 0.2
PSPL | ≤ 0.2
ISLV | ≤ 0.2
LNHC | ≤ 0.2
LFTW | ≤ 0.2
SKSH | ≤ 0.2
YTYD | ≤ 0.2
AMSY | ≤ 0.2
NDRY | ≤ 0.2
GSMI | ≤ 0.2
ILYP | ≤ 0.2
GNWG | ≤ 0.2
NANF | ≤ 0.2
EYMT | ≤ 0.2
RRQT | 0.752

Variant | one-hybrid fitness for binding NBS DNA
MPYS | ≤ 0.2
HSIV | ≤ 0.2
AHQG | ≤ 0.2
CIKG | ≤ 0.2
RTYC | ≤ 0.2
NHHL | ≤ 0.2
ALYL | ≤ 0.2
PMPP | ≤ 0.2
VGWY | ≤ 0.2
QHSI | ≤ 0.2
HHGS | ≤ 0.2
PDNI | ≤ 0.2
LKKC | ≤ 0.2
YHNS | ≤ 0.2
LVMN | ≤ 0.2
VNNY | ≤ 0.2
FDLD | ≤ 0.2
WGDM | ≤ 0.2
LCSR | ≤ 0.2
GRRD | ≤ 0.2
ALLP | ≤ 0.2
TQTA | ≤ 0.2
MQWT | ≤ 0.2
RMIL | ≤ 0.2

Variant | one-hybrid fitness for binding NBS DNA
NPPP | ≤ 0.2
MLYG | ≤ 0.2
NNNK | ≤ 0.2
VDEN | ≤ 0.2
ATLL | ≤ 0.2
THYP | ≤ 0.2
WRYR | ≤ 0.2
GNTR | ≤ 0.2
GRAH | ≤ 0.2
PRSG | ≤ 0.2
RPAR | ≤ 0.2
RFLY | ≤ 0.2
WWSD | ≤ 0.2
GAPC | ≤ 0.2
DGFC | ≤ 0.2
QHYR | 0.471
QNLN | ≤ 0.2
SPKI | ≤ 0.2
HTRF | ≤ 0.2
APHR | ≤ 0.2
DNIS | ≤ 0.2
SNKA | ≤ 0.2
CTWP | ≤ 0.2
RCTD | ≤ 0.2

Variant | one-hybrid fitness for binding NBS DNA
QPNT | ≤ 0.2
RRLA | 0.584
SQIR | ≤ 0.2
KRWR | 0.578
TKPG | ≤ 0.2
TQLS | ≤ 0.2
AFPL | ≤ 0.2
CRNG | ≤ 0.2
YLQC | ≤ 0.2
VEPS | ≤ 0.2
NYHR | ≤ 0.2
QHQA | 0.315
QLFG | ≤ 0.2
TTCH | ≤ 0.2
LDSR | ≤ 0.2
AWLG | ≤ 0.2
SRLE | ≤ 0.2
PCKS | ≤ 0.2
